Measured values published in PubChem BioAssay AID1508624 (National Center for Advancing Translational Sciences (NCATS), 2021).
Screen size: about 48,000 compounds; about 120 (0.25%) were called active. Roughly 4% stayed inconclusive and do not appear here. Calls follow the shape of the dose curve; as a rule, active = well fitted activation curve with a large enough effect; inconclusive = small, poorly fitted or top-dose-only effect, or another doubt; inactive = no such curve, though single readings can be large or run the other way. This is one part of the list.

Assay: Primary qHTS for Identification of Small Molecule Activators of Huntingtin-Antisense Promoter Activity; also: nearly all actives have a fitted effect of over 55% in size
Settings: HEK293 HTT-AS promoter firefly luciferase reporter (activity 0% = vehicle and -100% = no light), 24 h; series mostly up to 57.5 µM; activity change, positive = activation: at the top concentration
In short: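 Quantitative HTS used concentration series of up to 57.5 uM final on HEK293 luciferase reporter cells, 24 h at 37 degrees C. Readout was Dual-Glo firefly luminescence.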

Activity change, positive = activation, inactive:
Cc1cccc(CNC(=O)c2ccc(NC(=O)N3CC(C)Sc4ccccc43)cc2)c1 (configuration not stated) -5.82%
Nc1c(C(=O)c2ccc(F)cc2)sc(Nc2ccccc2F)c1S(=O)(=O)c1ccc(Br)cc1 -33.3%
CC(C)CN(CCNC(=O)CN1C(=O)CSc2ccc(S(=O)(=O)N3CCOCC3)cc21)CC(C)C -4.92%
Cc1ccc(NC(=O)Cn2c(=O)n(-c3ccccc3)c(=O)c3ccc(C(=O)NCc4ccc5c(c4)OCO5)cc32)c(C)c1 -56.8%
CCOc1ccc(S(=O)(=O)N(CC(=O)Nc2ccc3c(c2)OCO3)c2ccccc2)cc1 -9.89%
O=C(/C=C\c1ccc2c(c1)OCO2)NC1CC(=O)N(c2cccc(F)c2)C1 (configuration not stated) -12.8%
COc1ccccc1CNC(=O)c1ccc2c(c1)CCN2S(=O)(=O)c1ccccc1 -16.3%
O=C(Nc1c(-c2ccc(F)cc2)nc2ccccn12)c1ccccc1F -13.6%
CCOC(=O)c1cccc(NC(=O)c2ccc3nc(Cc4ccccc4)oc3c2)c1 -16.1%
CC(C)NCC(O)COc1ccc(COCCOC(C)C)cc1 (configuration not stated)
COc1ccc(CN(Cc2ccco2)c2cnc(S(C)(=O)=O)nc2C(=O)Nc2ccc(F)cc2)cc1 -22.9%
COc1ccc(OC)c(-c2csc(-c3c(N)c(C(=O)c4ccccc4)n4ccccc34)n2)c1 10.2%
Cn1c(=O)n(C/C=C/c2ccccc2)c(=O)c2c1nc1n2CCN1c1ccccc1 -9.6%
CCCCOc1ccc(CNC(=O)C2COc3ccc(OC)cc3C2)cc1 (configuration not stated) -16.4%
COc1ccc(S(=O)(=O)N(CC(=O)Nc2cccc(C(F)(F)F)c2)c2ccc(C)cc2)cc1 -37.6%
CCOc1ccc(C(=O)c2cn(CC(=O)Nc3ccc4c(c3)OCO4)c3ccc(OCC)cc3c2=O)cc1 -8.65%
COc1ccc(-n2c(=O)c3c(c4cc(OC)ccc4n3C)n(Cc3cc(C)ccc3C)c2=O)cc1 -5.68%
COC(=O)c1cccnc1-n1c(=O)c2cccnc2n(CC(=O)Nc2c(C)cc(C)cc2C)c1=O -17.9%
O=C(Cn1ncn2nc(-c3cccs3)cc2c1=O)NCc1cccc(Br)c1 6.12%
Cc1ccc(NC(=O)CN2C(=O)COc3ccc(S(=O)(=O)N4CCCCC4)cc32)cc1N(C)C -14.3%
CCOc1ccc(NC(=O)CC2C(=O)N(c3ccccc3)C(=O)N2Cc2ccc3c(c2)OCO3)cc1 (configuration not stated) 0%
Cc1ccc(CNC(=O)C2CCN(S(=O)(=O)c3cc(-c4noc(C)n4)ccc3C)CC2)cc1 -38.6%
Cc1nc2c(-c3ccccc3)c(C)nn2c(C)c1CCC(=O)NCc1ccc(F)cc1 -13.6%
Cc1c(Cl)cccc1-n1nc(C)c2c(C(=O)NCc3ccccc3)cc(C3CC3)nc21 -12.3%
Cn1c(=O)oc2cc(S(=O)(=O)Nc3ccccc3O)ccc21 -13.4%
CCOc1ccc(CCNC(=O)c2cc3c(s2)-c2ccccc2OC3)cc1OCC -26.4%
COc1ccc(-c2cc(C(F)(F)F)nc(SCC(=O)N3CCC(C)CC3)n2)cc1 -3.38%
Cc1ccc(-n2c3c(c(=O)[nH]c2=O)C(NC(=O)c2ccccc2C)(C(F)(F)F)C(=O)N3)cc1 (configuration not stated) 1.45%
COc1cccc(/C=C/c2onc(C)c2S(=O)(=O)N2CCC(C(=O)N3CCC(C)CC3)CC2)c1 -19.8%
COc1ccccc1N1CCN(C(=O)CSc2n[nH]c(-c3ccccc3)n2)CC1 -18.7%
Cc1cc2ccccc2n1-c1ccc(C(=O)N2CCC(C(=O)NCc3ccccc3Cl)CC2)s1 -12.6%
CC(CNC(=O)Cc1ccc(NC(=O)N2CCSc3ncccc32)cc1)c1ccccc1 (configuration not stated) -29.4%
COC(=O)c1scc(-c2ccc(C)cc2)c1S(=O)(=O)Nc1ccc(N(C)C)cc1 -17%
COc1ccc(-c2cn3c(n2)sc2cc(C(=O)Nc4cccc(OC)c4)ccc23)cc1 2.72%
Cc1ccccc1NCc1cccn1-c1nnc(N2CCC(C)CC2)s1 -3.53%
CCOC(=O)C1=C(CN2CCN(c3ccccc3F)CC2)NC(=O)NC1c1ccc(Cl)cc1 (configuration not stated) -29.5%
CCOc1ccc(NC(=O)c2cc3cc4cc(OC)ccc4nc3s2)cc1 -16.7%
Cc1cccc(NS(=O)(=O)c2ccc3c(c2)OCC(C(=O)N2CCCC2)O3)c1C (configuration not stated) -17.1%
CCc1nn(CCCC(=O)NCc2cc(Br)ccc2OC)c(=O)c2cc3occc3n12 -24.9%
COc1cccc(C(=O)Nc2cccc(C(=O)OCc3cc(=O)n4c5c(sc4n3)CCCC5)c2)c1 -15%
CCOC(=O)CSc1nc2c(sc3cccc(F)c32)c(=O)n1Cc1ccc(OC)cc1 -3.92%
COc1ccc2cc(CNc3ccc(C)cc3)c(=O)n(CC(=O)Nc3cccc(C(F)(F)F)c3)c2c1 -20.7%
Cc1ccc(-c2nnc(Nc3ccc(O)cc3)c3ccccc23)cc1S(=O)(=O)N1CCCCC1 -38.4%
O=c1c2cccnc2n(Cc2cccc(F)c2)c(=O)n1Cc1ccccc1Cl -22%
CC(C)(C)C(=O)Nc1ccc2nc(SCC(=O)N3CCc4ccccc43)sc2c1 -46.4%
Cc1ccc(S(=O)(=O)c2cn(CC(=O)Nc3ccc4c(c3)OCO4)c3ccccc3c2=O)cc1C -18%
COc1ccccc1-n1c(=O)c2c3c(sc2n(Cc2ccccc2F)c1=O)CN(C(C)=O)CC3 -25.2%
O=C(NCCS(=O)(=O)N1CCN(c2ccc(F)cc2)CC1)C1CC(=O)N(c2ccccc2)C1 (configuration not stated) 5.94%
Cc1ccc(NC(=O)N2CCN(C)c3ncccc32)cc1C -12.8%
O=C(CN1C(=O)COc2ccc(S(=O)(=O)N3CCCCCC3)cc21)NCCc1ccccc1 -16%
Cc1ccc(CN2C(=O)N(c3ccccc3)C(=O)C2CC(=O)Nc2ccccc2)cc1 (configuration not stated) 3.12%
COc1cc(OC)c(N(C)C(=O)Cn2ncc3c(=O)oc4ccccc4c32)cc1Cl -3.12%
COCCNC(=O)c1c(NC(=O)c2cc(=O)c3cc(Cl)ccc3o2)sc2c1CCCC2 -6.86%
COC(=O)c1ccccc1NC(=O)N1CCC(n2c(C)nc3cccnc32)CC1 -17.5%
CCc1cccc(C)c1NC(=O)Cn1cc2c(n1)CCCCC2 -21.2%
COc1ccccc1NC(=O)Cn1nnc(C(=O)Nc2ccccc2Br)c1N -1.94%
CC(=O)N1CCN(c2csc3ccc(Br)cc3c2=O)CC1 16.7%
Cc1ccc(CNC(=O)c2cc(=O)c3cc(C)cc(C)c3o2)cc1 -9.91%
COC(=O)c1ccccc1NC(=O)c1cnc2sc(N3CCOCC3)nn2c1=O -12.2%
CCC(C)NC(=O)CSc1nc(-c2ccc(F)cc2)cc(C(F)(F)F)n1 (configuration not stated) -3.01%
CCN1C(=O)c2ccccc2S(=O)c2ccc(C(=O)N3CCN(c4ccccc4OC)CC3)cc21 (configuration not stated) -41.6%
COc1cccc(CNC(=O)CCCCCn2c(=O)[nH]c3cc(OC)c(OC)cc3c2=O)c1 -6.56%
CCOC(=O)c1c(C)[nH]c(C)c1S(=O)(=O)NCC(=O)NCc1ccccc1Cl -0.229%
COc1cc(C(CC(=O)Nc2cc(C)ccn2)N2Cc3ccccc3C2=O)cc(OC)c1OC (configuration not stated) -7.52%
COc1cc(-c2oc3ccc(C)cc3c(=O)c2O)cc(OC)c1OC -13.2%
COc1ccccc1NC(=O)CSc1oc(-c2ccccc2)nc1S(=O)(=O)c1ccccc1 -13.8%
COc1ccc2c(c1)c1c(c(=O)n(-c3cccc(C)c3)c(=O)n1CC(=O)NCC1CCCO1)n2C (configuration not stated) -7.98%
COc1ccccc1CNC(=O)CCCn1c(=O)c2ccccc2n(Cc2ccccc2C#N)c1=O -12.9%
Cc1cccc(Cc2c(C)nc3nc(SCc4ccccc4F)nn3c2C)c1 -20.5%
CCOc1ccccc1C(=O)Nc1ccc(S(=O)(=O)Nc2ncccn2)cc1 -13%
CC(C)=CCC/C(C)=C/CC/C(C)=C/C(=O)OCC(=O)[C@@]1(O)CC[C@H]2[C@@H]3CCC4=CC(=O)C=C[C@]4(C)[C@H]3[C@@H](O)C[C@@]21C -2.72%
CCCN1CCN(CCNC(=O)Nc2ccccc2OCC)CC1 -5.13%
CCCN(Cc1cccs1)C(=O)Nc1ccc(Br)cc1F 3.9%
COc1ccc2[nH]c(=O)c(CN(C(=O)c3cccc(Cl)c3)c3cccc(C)c3)cc2c1 -20.9%
C[C@H]1C[C@H]2[C@@H]3CCC4=CC(=O)C=C[C@]4(C)[C@@H]3C(=O)C[C@]2(C)[C@@]1(O)C(=O)CO -21.8%
CCN1CCN(c2ncc3c(n2)CCN(Cc2ccc(OC)c(OC)c2)C3)CC1 -7.87%
Cc1ccc(NC(=O)C2CCCN2S(=O)(=O)c2ccc3c(c2)C(C)(C)C(=O)N3C)cc1 (configuration not stated) -29.7%
Cc1cccc(N2CCN(C(=O)Cn3ncc4c([nH]c5ccccc54)c3=O)CC2C)c1 (configuration not stated) -3.34%
Cn1cnc(S(=O)(=O)N2CCCC(C(=O)NCc3ccccc3)C2)c1 (configuration not stated) -3.87%
COc1ccc(-c2cc(C)no2)cc1S(=O)(=O)NC1CCC(C)CC1 (configuration not stated) -19.8%
CCOc1ccc(NC(=O)c2cc(C)nc3c2c(C)nn3-c2cccc(F)c2)cc1 -10.6%
CC1(C(=O)NC2CCCCC2)Cc2ccccc2C(=O)N1Cc1ccc(F)cc1 (configuration not stated) -15.4%
Cc1ccc(S(=O)(=O)c2nc(-c3ccco3)oc2SCc2ccc(F)cc2)cc1 -22.1%
Cc1c(OCC(F)(F)F)ccnc1CS(=O)c1nc2ccccc2[nH]1 (configuration not stated) -0.17%
CCOc1ccc(-n2ccnc2SCC(=O)Nc2ccc3c(c2)OCO3)cc1 -33.3%
O=C(CSc1nc2ccccc2nc1Cc1ccccc1)Nc1ccccc1C(F)(F)F -21%
COc1ccc(S(=O)(=O)NCCc2sc3nc(-c4ccc(C)cc4)nn3c2C)cc1F -31.3%
O=C(NCCS(=O)(=O)N1CCN(c2ccccc2F)CC1)C1CC(=O)N(c2ccccc2)C1 (configuration not stated) 6.97%
CCOc1ccc(CNC(=O)c2cnc3sc(N(CC)CC)nn3c2=O)cc1 -9.52%
COc1cccc(NC(=O)c2c(N3CCCC3=O)c3cc(C)ccc3n2C)c1 -32.9%
Nc1nc(F)nc2c1ncn2[C@@H]1O[C@H](CO)[C@@H](O)[C@@H]1O
COc1ccc(OC)c(NC(=O)Cn2c(=O)n(Cc3nc(C)no3)c(=O)c3ccccc32)c1 -11.3%
